Assay results published in ChEMBL document CHEMBL1201862, “PubChem BioAssay data set” (2004).
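How tested: cells in 96-well plates exposed to compound for 48 hours at five concentrations. GI50 = concentration required for 50% inhibition of growth.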 Activity calls are given as the source filed them. No stated cut-off is given here; in the data, active = GI50 up to about 1.1 µM and inactive = higher.

Experiments:
Assay in all cases: DTP human tumour cell line panel, 48 h
[1] = tested on: MDA-N
[2] = tested on: RXF 393
[3] = tested on: OVCAR-8
[4] = tested on: HOP-18
[5] = tested on: SK-MEL-5
[6] = tested on: ACHN
[7] = tested on: DMS-114
[8] = tested on: RPMI-8226
[9] = tested on: NCI-H226
[10] = tested on: DMS-273
[11] = tested on: KM12
[12] = tested on: Hs-578T
[13] = tested on: SF-539
[14] = tested on: NCI/ADR-RES
[15] = tested on: K562
[16] = tested on: SF-268
[17] = tested on: Malme-3M
[18] = tested on: 786-0
[19] = tested on: NCI-H522
[20] = tested on: OVCAR-4
[21] = tested on: MOLT-4
[22] = tested on: HCT-116
[23] = tested on: UO-31
[24] = tested on: HT-29
[25] = tested on: LOX IMVI
[26] = tested on: T47D
[27] = tested on: TK-10
[28] = tested on: A549
[29] = tested on: UACC-62
[30] = tested on: HOP-62
[31] = tested on: PC-3
[32] = tested on: SN12C
[33] = tested on: A498
[34] = tested on: SK-MEL-28
[35] = tested on: OVCAR-3
[36] = tested on: NCI-H23
[37] = tested on: HL-60
[38] = tested on: EKVX
[39] = tested on: SK-OV-3
[40] = tested on: HCC 2998
[41] = tested on: NCI-H460
[42] = tested on: SNB-19
[43] = tested on: IGROV-1
[44] = tested on: M14
[45] = tested on: CCRF-CEM
[46] = tested on: SK-MEL-2
[47] = tested on: MDA-MB-231
[48] = tested on: SNB-75
[49] = tested on: SR
[50] = tested on: BT-549
[51] = tested on: LXFL 529
[52] = tested on: M19-MEL
[53] = tested on: SF-295
[54] = tested on: U-251
[55] = tested on: HCT-15
[56] = tested on: KM-20L2
[57] = tested on: UACC-257
[58] = tested on: HOP-92
[59] = tested on: DU-145
[60] = tested on: MDA-MB-435
[61] = tested on: OVCAR-5
[62] = tested on: MCF7
[63] = tested on: COLO 205
[64] = tested on: SW-620
[65] = tested on: CAKI-1

For `CN[C@H]1CCc2cc(OC)c(OC)c(OC)c2-c2ccc(SC)c(=O)cc21`, the GI50 [1] was active: < 10 nM, the GI50 [2] was active: < 10 nM and the GI50 [3] was active: < 10 nM. For the same compound, the GI50 [4] was inactive: > 100 µM, the GI50 [5] was active: < 10 nM and the GI50 [6] was active: 10.1 nM. For the same compound, the GI50 [7] was active: < 10 nM, the GI50 [8] was active: < 10 nM and the GI50 [9] was active: 92.5 nM. The GI50 [10] was active: < 10 nM, the GI50 [11] was active: < 10 nM and the GI50 [12] was active: < 10 nM. The GI50 [13] was active: < 10 nM, the GI50 [14] was active: 15.4 nM and the GI50 [15] was active: < 10 nM. The GI50 [16] was active: 13.3 nM, the GI50 [17] was active: 42.9 nM and the GI50 [18] was active: 11.8 nM. For the same compound, the GI50 [19] was active: < 10 nM, the GI50 [20] was inactive: 8.45 µM and the GI50 [21] was active: < 10 nM. The GI50 [22] was active: < 10 nM, the GI50 [23] was active: 46.2 nM and the GI50 [24] was active: < 10 nM. For the same compound, the GI50 [25] was active: 10.5 nM, the GI50 [26] was inactive: 51.9 µM and the GI50 [27] was inactive: 1.16 µM. For the same compound, the GI50 [28] was active: < 10 nM, the GI50 [29] was active: < 10 nM and the GI50 [30] was active: 11.9 nM. The GI50 [31] was active: < 10 nM, the GI50 [32] was active: 30.2 nM and the GI50 [33] was active: < 10 nM. The GI50 [34] was active: 33.3 nM, the GI50 [35] was active: < 10 nM and the GI50 [36] was active: < 10 nM. For the same compound, the GI50 [37] was active: < 10 nM, the GI50 [38] was active: 63.1 nM and the GI50 [39] was active: 22.4 nM. For the same compound, the GI50 [40] was active: < 10 nM, the GI50 [41] was active: < 10 nM and the GI50 [42] was active: 49.4 nM. The GI50 [43] was active: < 10 nM, the GI50 [44] was active: < 10 nM and the GI50 [45] was active: < 10 nM. For the same compound, the GI50 [46] was active: < 10 nM, the GI50 [47] was active: < 10 nM and the GI50 [48] was active: < 10 nM. For the same compound, the GI50 [49] was active: < 10 nM, the GI50 [50] was active: < 10 nM and the GI50 [51] was active: < 10 nM. The GI50 [52] was active: < 10 nM, the GI50 [53] was active: < 10 nM and the GI50 [54] was active: < 10 nM. The GI50 [55] was under 10 nM, the GI50 [56] was active: 17.8 nM and the GI50 [57] was active: 855 nM. The GI50 [58] was active: 31.6 nM, the GI50 [59] was active: < 10 nM and the GI50 [60] was active: < 10 nM. The GI50 [61] was active: 265 nM, the GI50 [62] was active: < 10 nM and the GI50 [63] was active: < 10 nM. The GI50 [64] was active: < 10 nM and the GI50 [65] was active: 10.5 nM.
